# Reference: paper PMC4336329 (PLoS ONE, 2015)
# Among all 310,000 compounds or so, about 2,200 (0.71%) showed an effect of 50% or more. The effect is printed as a negative number. The list shows a part of the results.
# Target: human ether-à-go-go-related gene (hERG) potassium channel (human, UniProt Q12809)
# Assay: primary screen, population patch clamp on CHO cells stably expressing hERG
# Chain of human ether-à-go-go-related gene (hERG) potassium channel (Q12809 whole entry, looked up): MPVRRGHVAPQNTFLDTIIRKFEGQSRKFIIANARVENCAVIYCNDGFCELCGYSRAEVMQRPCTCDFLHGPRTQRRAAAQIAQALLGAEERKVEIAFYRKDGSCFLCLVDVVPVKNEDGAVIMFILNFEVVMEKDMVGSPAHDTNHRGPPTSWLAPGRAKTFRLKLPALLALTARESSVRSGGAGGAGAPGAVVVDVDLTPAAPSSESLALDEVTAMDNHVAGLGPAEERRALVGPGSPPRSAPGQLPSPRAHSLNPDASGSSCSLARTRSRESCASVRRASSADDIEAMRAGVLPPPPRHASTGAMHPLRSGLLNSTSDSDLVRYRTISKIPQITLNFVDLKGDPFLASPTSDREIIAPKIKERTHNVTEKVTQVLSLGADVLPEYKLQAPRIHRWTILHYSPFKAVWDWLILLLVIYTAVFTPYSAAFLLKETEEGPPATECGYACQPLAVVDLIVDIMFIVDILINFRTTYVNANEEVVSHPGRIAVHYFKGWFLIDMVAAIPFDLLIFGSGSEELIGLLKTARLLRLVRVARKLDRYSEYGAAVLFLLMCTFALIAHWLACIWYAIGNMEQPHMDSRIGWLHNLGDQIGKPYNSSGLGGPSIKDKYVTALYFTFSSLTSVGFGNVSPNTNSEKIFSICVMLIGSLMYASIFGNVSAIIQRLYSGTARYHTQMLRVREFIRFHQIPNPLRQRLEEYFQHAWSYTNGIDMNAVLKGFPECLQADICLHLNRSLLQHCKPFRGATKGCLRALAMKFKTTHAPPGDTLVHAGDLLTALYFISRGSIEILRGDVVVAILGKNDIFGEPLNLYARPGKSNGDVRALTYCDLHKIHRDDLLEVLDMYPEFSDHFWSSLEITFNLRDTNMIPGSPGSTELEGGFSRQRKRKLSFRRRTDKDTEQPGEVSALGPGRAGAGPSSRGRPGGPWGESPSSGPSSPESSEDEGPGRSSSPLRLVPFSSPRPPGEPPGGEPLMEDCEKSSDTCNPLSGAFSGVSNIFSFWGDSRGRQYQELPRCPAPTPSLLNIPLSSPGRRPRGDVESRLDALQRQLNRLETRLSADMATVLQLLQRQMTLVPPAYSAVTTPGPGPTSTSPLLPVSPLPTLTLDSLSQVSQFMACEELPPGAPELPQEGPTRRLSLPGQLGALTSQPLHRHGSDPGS
row,SMILES,"hERG current change (%, negative = inhibition) at 1uM [%]"
1,COc1cccc(/C=C2\SC(=O)N(CCC(=O)NNC(=O)c3ccccc3Cl)C2=O)c1,7.45
2,Cc1cc2nc(SCC(=O)N(C)C)c3c(c2cc1C)CCCC3,0.811
3,Cc1ccc(NS(=O)(=O)c2ccc(NC(=O)c3ccc(-c4ccccc4)cc3)cc2)c(C)c1,7.25
4,O=C(NCCC1=CCCCC1)c1ccc(Cl)c(S(=O)(=O)N2CCCCC2)c1,4.72
5,COc1ccc(C(=O)Oc2cc(OC)cc(OC)c2C(C)=O)cc1,12.1
6,O=C(CSc1nnc(CNc2ccc(F)cc2)o1)N1CCN(C(=O)c2ccco2)CC1,-14.2
7,CC/C(=N\NC(=O)CSCc1ccc(Cl)cc1)c1ccc2c(c1)OCCO2,12
8,COc1ccc(CNCC(=O)Nc2ccccc2-n2cccc2)cc1.Cl,6.51
9,COCCOC(=O)c1c(C)oc2ccc(OC(=O)c3c(OC)cccc3OC)cc12,6.81
10,CCOC(=O)C1CCN(S(=O)(=O)c2ccc3c(c2)CC(=O)N3C)CC1,8.89
11,O=C(Nc1ccc(Cl)cc1C(=O)O)c1ccc2c(c1)C(=O)N(Cc1ccco1)C2=O,18.7
12,Cc1cc(S(=O)(=O)N(Cc2cccs2)Cc2ccccc2F)ccc1-n1cnnn1,5.44
13,S=C(Nc1cccc(Cl)c1Cl)N1CCC2(CC1)OCCO2,11.3
14,COc1ccc(S(=O)(=O)N2CCOCC2)cc1NC(=O)c1sccc1C,9.57
15,COc1ccc(S(=O)(=O)N2CCCC(C(=O)NCc3ccccc3)C2)cc1 (stereo not drawn),23.7
16,COc1ccc(C2NC3=C(CCC3)C3(C#N)C4(N=C(N)C23C#N)OCCO4)cc1 (stereo not drawn),0.697
17,O=C(NCCC1CCCCN1S(=O)(=O)c1ccc(F)cc1)C(=O)Nc1ccccc1F (stereo not drawn),14.6
18,COC(=O)c1cc(O)cc(OC)c1Oc1cc(C)cc(O)c1C(=O)O,15.2
19,Cc1c(CN2CCC(CO)(Cc3ccccc3)CC2)c2ccccc2n1C,6.98
20,COc1ccc(Cl)cc1NC(=O)COC(=O)C1COc2ccccc2O1 (stereo not drawn),4.93
21,COc1cc(OC)cc(N(C(=O)CNC(=O)c2ccco2)C(C(=O)NCC2CCCO2)c2ccccc2)c1 (stereo not drawn),7.67
22,CCOc1ccccc1OCCCC(=O)Nc1cccc(S(=O)(=O)N2CCOCC2)c1,6.75

row,SMILES,"hERG current change (%, negative = inhibition) at 1uM [%]"
1,Cc1ccc(NC(=O)Nc2cnc3ccccc3c2)cc1,10.3
2,Nc1cccc(-c2nc3ccccc3s2)c1,2.59
3,Cc1ccc2nc(SCC(=O)Nc3ccc(Br)cc3)nc(=O)n2c1,10
4,O=C(CSc1nnc(N2CCOCC2)n1-c1cccc(F)c1)N1CCN(c2ccccn2)CC1,16.7
5,COc1ccc(CNc2nc3nc(C)c(Cl)c(C)n3n2)cc1,16
6,Nc1ncnc2c1cnn2-c1ccccc1,2.75
7,CCOc1ncccc1C(=O)Nc1cccc(C(=O)Nc2cccc(S(=O)(=O)CCO)c2)c1,5.46
8,CC(=O)c1c(C)[nH]c(C(=O)N(C)C(c2ccccc2)c2ccccc2)c1C,10.4
9,Cc1n[nH]c(C)c1CS(=O)(=O)c1ccccc1,14
10,CC1CC(C)CN(C(=O)COC(=O)c2ccc[nH]c2=O)C1 (stereo not drawn),7.04
11,CC(C)c1ccc(Nc2nc(Cl)nc(NCc3ccco3)n2)cc1,11.8
12,CC(=O)c1cccc(-n2c(CCC(=O)O)ccc2-c2cccs2)c1,7
13,Cc1ccc(C(=O)/C=C/c2ccc3c(c2)OCO3)o1,5.84
14,Cc1cccc(/C=C/c2onc(C)c2S(=O)(=O)N2CCC(C(=O)N3CCCCCC3)CC2)c1,13.4
15,COc1cccc(-c2nc(CS(=O)(=O)CC(=O)N3CCc4ccccc4C3)c(C)o2)c1,5.88
16,O=[N+]([O-])c1cccnc1N1CCC(c2cc(-c3ccc(Cl)cc3)n[nH]2)CC1,2.13
17,CCC(=O)Nc1nc(-c2ccccc2)ns1,-3.29
18,Cc1nc2c(c(=O)n1CCC1=CCCCC1)c1nc3ccccc3nc1n2/N=C/c1ccccc1,8.45
19,Cc1cc(OC(=O)CNC(=O)OC(C)(C)C)c2c(C)cc(=O)oc2c1,4.88
20,Cc1cccc(NC(=O)C(=O)NCCCc2ccccc2)c1,9.27
21,O=S(=O)(c1ccc(Br)cc1)N1CCC(c2nc3ccccc3[nH]2)CC1,-6.12
22,O=C(Nc1nnc(C2=COCCO2)o1)c1cccc([N+](=O)[O-])c1,10.9

row,SMILES,"hERG current change (%, negative = inhibition) at 1uM [%]"
1,COc1ccc(C(=O)c2sc(Nc3ccccc3)nc2N)cc1OC,15.7
2,COC(=O)c1ccccc1NC(=O)C(C)NS(=O)(=O)c1ccc(OC)cc1 (stereo not drawn),6.2
3,Cc1ccc2nc(-c3ccc(SCC(=O)Nc4cc(C)on4)nc3)[nH]c2c1,11
4,COc1ccc(CN(CC(=O)NCC2CCCO2)C(=O)CCC(=O)Nc2nccs2)cc1 (stereo not drawn),17.5
5,O=C1NC(=S)NC(=O)C1=Cc1ccc(OCC(=O)N2CCCC2)cc1,6.23
6,CCOC(=O)C1CCN(Cc2c(O)ccc3ccccc23)CC1,6.87
7,CC(C)C(=O)OCC(=O)Nc1ccc2c(c1)CCC2,15
8,c1ccc2sc(N3CCCN(Cc4nc(-c5cnccn5)no4)CC3)nc2c1,-1.27
9,O=C1C(c2ccccc2)=C(N2CC2)c2ccccc21,9.11
10,O=C(NC(=S)Nc1ccc2ncccc2c1)c1ccccc1,9.42
11,O=C(O)c1ccc(Nc2ncnc3c2cnn3Cc2ccccc2)cc1,13
12,NS(=O)(=O)c1ccc(N/N=C/c2ccccn2)c([N+](=O)[O-])c1,15.4
13,CC1CCN(S(=O)(=O)c2csc(C(=O)Nc3ccccc3)c2)CC1,-0.636
14,C=CCNC(=S)N1CCN(CCNC2=CC(=O)CC(C)(C)C2)CC1,22.9
15,O=C(c1ccc2c(=O)n(Cc3ccccc3)c(=S)[nH]c2c1)N1CCOCC1,13.5
16,Cc1cccc(C)c1NC(=O)COC(=O)C1Cc2ccccc2CN1C(=O)c1ccccc1 (stereo not drawn),8.9
17,COc1ccc(/C(C)=N/OC/C(O)=C(\C#N)c2nc3ccccc3[nH]2)c(OC)c1,-5.85
18,CCCN(Cc1nnc(-c2ccccc2Cl)o1)C(=O)c1cc(S(=O)(=O)N2CCOCC2)ccc1F,-8.05
19,O=C(c1cc2ccccc2oc1=O)N1CCN(CCc2ccccc2)CC1,-60.4
20,CCN(CC(=O)Nc1cc(C)c(Cl)cc1OC)CC(=O)NC1CCS(=O)(=O)C1 (stereo not drawn),15.9
21,Cc1cc(C)n(-c2nc3ccccc3n3nnnc23)n1,11.1
22,CSc1nc(C)cc(OCC#N)n1,10.1

row,SMILES,"hERG current change (%, negative = inhibition) at 1uM [%]"
1,COc1ccc(N2CCN(C(=O)c3sc4ncn(CC(=O)N5CCCCC5)c(=O)c4c3C)CC2)cc1,8.97
2,COC(=O)C1CN(S(=O)(=O)c2cc(OC)ccc2OC)CCS1 (stereo not drawn),13.4
3,CCOC(=O)CCc1c(C)nc2c(c(C)nn2-c2ccc(C)cc2)c1C,17.4
4,C=CCn1c(SCC(=O)c2c(C)[nH]c3ccccc23)nnc1-c1ccncc1,20.1
5,O=C1c2ccccc2C(=O)N1CCCCN(C(=O)c1ccc([N+](=O)[O-])cc1)c1ccc(Cl)cc1,9.1
6,CCOC(=O)COc1ccccc1/C=C\[N+](=O)[O-],9.17
7,COC(=O)c1ccc(NC(=O)Cc2ccc(F)cc2)cc1,20.2
8,CCCn1cc(S(=O)(=O)c2ccccc2)c(=O)c2cc(F)c(N3CCN(C)CC3)cc21,15.5
9,O=c1[nH]c2sc3c(c2c2nncn12)CCCC3,11.7
10,Cc1cc(C)nc(Sc2c(C)nn(-c3ccccc3)c2C)n1,3.43
11,O=C(CSc1nnc(SCc2ccc(F)cc2)s1)Nc1ccc(C(=O)O)cc1,9.2
12,Oc1ccc(C[C@@H]2CNC(=S)N2CCCCC2CCCCC2)cc1,15
13,c1ccc(-c2nc(-c3nccc4ccccc34)oc2-c2ccccc2)cc1,5.84
14,CC(C(=O)Nc1ccccc1F)N1C(=O)c2ccccc2C1=O (stereo not drawn),14
15,CCCC(=O)Nc1sc(C(=O)Nc2cccc(N)c2)c(C)c1C(=O)OC,6.22
16,O=C(CSc1nc2ccccc2[nH]1)NCC1CCCO1 (stereo not drawn),10.5
17,O=C(Nc1ccc(F)c(Cl)c1)Nc1csc2ccccc12,15.6
18,O=C(Nc1ccc(Cl)cc1)NC1CCS(=O)(=O)C1 (stereo not drawn),-13.4
19,COc1cc2ccccc2cc1C(=O)Nc1ccc(N2CCN(C(=O)C(C)C)CC2)cc1,15.7
20,CCC1(CC)NC(=O)N(CC(=O)Nc2ccc(S(=O)(=O)N3CCOCC3)cc2)C1=O,3.3
21,CCN(CC)S(=O)(=O)c1cccc(NC(=O)CC2CCCC2)c1,15.6
